Measured values from patent US20090170849A1, “QUINAZOLINONE DERIVATIVES HAVING B-RAF INHIBITORY ACTIVITY” (ASTRAZENECA AB, priority 2006, published 2009).

The compounds below were run against Mutant B-Raf (V600E) enzyme (MT B-Raf) (Homo sapiens, UniProt P15056, V600E) (assay: B-Raf in-vitro AlphaScreen Assay). Details: purified full length His-tagged Mutant B-Raf (V600E), phosphorylation of biotinylated HIS-MEK-AVI.
Type: biochemical
Method: B-Raf in-vitro AlphaScreen Assay
MT B-Raf was expressed in insect cells and affinity purified by Ni^+2 agarose followed by Q-Sepharose chromatography. Typical yield was 1.08 mg/ml at >90% purity. The phosphorylation of the MT B-Raf substrate in the presence and absence of the compound of interest was determined. Briefly, 5 μl of enzyme/substrate/adenosine triphosphate (ATP) mix consisting of 0.12 nM MT B-Raf, 84 nM biotinylated HIS-MEK-AVI, and 24 μM ATP in 1.2× buffer was preincubated with 2 ul of compound for 20 minutes at 25° C. Reactions were initiated with 5 μl of Metal mix consisting of 24 mM MgCl2 in 1.2× buffer and incubated at 25° C. for 60 minutes and reactions were stopped by addition of 5 μl of Detection mix consisting of 20 mM HEPES, 102 mM ethylenediamine tetraacetic acid, 1.65 mg/ml BSA, 136 mM NaCl, 3.4 nM Phospho-MEK1/2 (Ser217/221) antibody (Catalog #9121, Cell Signaling Technology, MA), 40 μg/ml Streptavidin donor beads (Perkin Elmer, MA, Catalog #6760002), and 40 μg/ml Protein A acceptor beads (Perkin Elmer, MA, Catalog #6760137). Plates were incubated at 25° C. for 18 hours in the dark. Phosphorylated substrate was detected by an EnVision plate reader (Perkin Elmer, MA) 680 nm excitation, 520-620 nm emission. Data was graphed and IC50s calculated using Excel Fit (Microsoft).

Question: With `Cc1ccc(C(=O)Nc2cccc(C(C)(C)C#N)c2)cc1Nc1ccc2ncn(C)c(=O)c2c1` [Example 1, N-[3-(1-Cyano-1-methylethyl)phenyl]-4-methyl-3-[(3-methyl-4-oxo-3,4-dihydroquinazolin-6-yl)amino]benzamide] as the compound, how does the IC50 read?
Answer: 100 nM

Question: With `Cc1ccc(C(=O)NC2CCCC(C(F)(F)F)C2)cc1Nc1ccc2ncn(C)c(=O)c2c1` (stereo not drawn) [Example 7, 4-Methyl-3-[(3-methyl-4-oxo-3,4-dihydroquinazolin-6-yl)amino]-N-[3-(trifluoromethyl)cyclohexyl]benzamide] as the compound, how does the IC50 read?
Answer: 75 nM

Question: Which IC50 does the source give for `Cc1ccc(C(=O)Nc2ccnc(C(F)(F)F)c2)cc1Nc1ccc2ncn(C)c(=O)c2c1` [Example 9, 4-Methyl-3-[(3-methyl-4-oxo-3,4-dihydroquinazolin-6-yl)amino]-N-[2-(trifluoromethyl)pyridin-4-yl]benzamide] here?
Answer: 44 nM
